Assay results as given in US11547761B1, “Antibody adjuvant conjugates” (The Board of Trustees of the Leland Stanford Junior …, priority 2016, dated 2023).

What was measured:
[1] = system: human APCs (myeloid cells); test: APC-tumor co-culture / myeloid cell stimulation, surface markers by flow cytometry; assay type: cell-based; details: 18 hours of stimulation; compared with the corresponding unconjugated antibody unless the value names another comparator
Excerpt: (§1) Human antigen presenting cells (APCs) were negatively selected from human peripheral blood mononuclear cells obtained from healthy blood donors (Stanford Blood Center) by density gradient centrifugation using a RosetteSep Human Monocyte Enrichment Cocktail (Stem Cell Technologies) containing monoclonal antibodies against CD2, CD3, CD8, CD19, CD56, CD66b and CD235a. Immature APCs were subsequently purified to >97% purity via negative selection using an EasySep Human Monocyte Enrichment Kit without CD16 depletion containing monoclonal antibodies against CD2, CD3, CD19, CD20, CD56, CD66b, CD123 and CD235a.
Tumor cells were resuspended in PBS with 0.1% fetal bovine serum (FBS) at 1 to 10×10^6 cells/mL. Cells were subsequently incubated with 2 μM CFSE to yield a final concentration of 1 μM. The reaction was ended after 2 minutes via the addition of 10 mL complete medium with 10% FBS and washed once with complete medium. Cells were either fixed in 2% paraformaldehyde and washed three times with PBS or left unfixed prior to freezing the cells in 10% DMSO, 20% FBS and 70% medium.
(§2) 2×10^5 APCs were incubated with or without 6.5×10^5 autologous or allogeneic CFSE-labeled tumor cells in 96-well plates (Corning) containing IMDM medium (Gibco) supplemented with 10% fetal bovine serum, 100 U/mL penicillin, 100 μg/mL streptomycin, 2 mM L-glutamine, sodium pyruvate, non-essential amino acids, 50 μM 2-ME and, where indicated, various concentrations of anti-tumor antibody and the indicated adjuvants. Cells and cell-free supernatants were analyzed after 18 hours via flow cytometry.
as §1, with “[…]” for “CD2, CD3, CD8, CD19, CD56, CD66b”, “[…].” for “CD235a.”, “CD14, CD16, CD40, CD86, CD123,” for “CD2, CD3, CD19, CD20, CD56, CD66b, CD123”
as §2, with “antibody.” for “anti-tumor antibody and the indicated adjuvants.”
(§3) 2×10^5 APCs were incubated with or without 6.5×10^5 allogeneic CFSE-labeled tumor cells in 96-well plates (Corning) containing IMDM medium (Gibco) supplemented with 10% fetal bovine serum, 100 U/mL penicillin, 100 μg/mL streptomycin, 2 mM L-glutamine, sodium pyruvate, non-essential amino acids and, where indicated, various concentrations of unconjugated CD20 antibody, and immunoconjugates of the invention were prepared according to the examples above. Cells and cell-free supernatants were analyzed after 18 hours via flow cytometry or ELISA.

[2] = system: human APCs (myeloid cells); test: Cytokine secretion from human APCs / myeloid cells (cell free supernatants); assay type: cell-based
Method: After 18 hours, cell free supernatants were analyzed for cytokine secretion via cytokine bead arrays; n=3. P-values≤0.05 depicted by *, P-values≤0.01 depicted by **, P-values≤0.001 depicted by ***, P-values≤0.0001 depicted by ****.
as §2, with “Cells and cell-free supernatants were analyzed after 18 hours via flow cytometry.” left out
While the expression of T cell stimulatory molecules such as CD40, CD86 and HLA-DR is necessary for effective T cell activation, APCs also influence the nature of the ensuing immune response through the secretion of cytokines. Therefore, the capacity of immunoconjugates to elicit cytokine secretion in human APCs following stimulation was investigated as described above.
The capacity of these immunoconjugates to elicit cytokine secretion in human APCs following stimulation was investigated as described in Example 3 above.
as §3, with “Cells and cell-free supernatants were analyzed after 18 hours via flow cytometry or ELISA.” left out

[3] = 18 hours of stimulation, compared to equimolar unconjugated antibody unless the value names another comparator
[4] = 36 hours of stimulation, compared to equimolar unconjugated antibody

B1: Bevacizumab Boltbody (conjugate, chains of the INN, looked up)
heavy: EVQLVESGGGLVQPGGSLRLSCAASGYTFTNYGMNWVRQAPGKGLEWVGWINTYTGEPTYAADFKRRFTFSLDTSKSTAYLQMNSLRAEDTAVYYCAKYPHYYGSSHWYFDVWGQGTLVTVSS[human IgG1 constant region cut from this listing]
light: DIQMTQSPSSLSASVGDRVTITCSASQDISNYLNWYQQKPGKAPKVLIYFTSSLHSGVPSRFSGSGSGTDFTLTISSLQPEDFATYYCQQYSTVPWTFGQGTKVEIKRTVAAPSVFIFPPSDEQLKSGTASVVCLLNNFYPREAKVQWKVDNALQSGNSQESVTEQDSKDSTYSLSSTLTLSKADYEKHKVYACEVTHQGLSSPVTKSFNRGEC
modifications: adjuvant conjugate
superior: CD14 downregulation on myeloid cells [1] | CD16 downregulation on myeloid cells [1] | CD40 upregulation on myeloid cells [1] | CD86 upregulation on myeloid cells [1] | CD123 upregulation on myeloid cells [1] | IL-1β secretion from myeloid cells [2, 3] | TNFα secretion from myeloid cells [2, 3] | IL-1β secretion from myeloid cells [2, 4] | TNFα secretion from myeloid cells [2, 4]
